Results on 18 molecules are retold here after the supplement of paper PMC10369915.

This is one part of the list. No stated cut-off is given here; in the data, active = 3.2 or more and inactive = the rest. The signal is at background level for most entries.
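Further: displayed peptides selected on beads carrying the immobilized SH2 domain, with library peptides lacking any tyrosine serving as negative controls.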

The target of the first experiment is SHP2 C-SH2 domain E139D. The experiment is described as follows: enrichment score (SH2-bound / input frequency) (ratio); bacterial display of known human phosphotyrosine sites (pTyr-Var adds point mutants) read by sequencing; higher = stronger binding; tyrosines were phosphorylated by kinases first. Conditions: peptide library: Human pTyr.
Regarding NTGAKNLYIISVKGI [RL23_HUMAN_38], the enrichment score is inactive: 2.62.

Consider CAKNRPDYVSEEEED [RBP2_HUMAN_2666_YA], for which the enrichment score is inactive: 1.42.

FTLPVHFYGHVEHTS [PYGM_HUMAN_204]: the enrichment score was inactive: 2.63.

Regarding EGKTKEVYELLDSPG [PUR6_HUMAN_22], the enrichment score is inactive: 0.739.

On to ASPEAQDYVALEGTQ [RHG35_HUMAN_308_YA], for which the enrichment score is inactive: 0.71.

For the molecule SPKSQDSYPGSPSLS [RBP10_HUMAN_362], the enrichment score was inactive: 0.593.

In the case of ILRCNAEYVSSTLSL [RGMC_HUMAN_46], the enrichment score was inactive: 1.36.

For VKHFTNPYCNIALNS [RASA1_HUMAN_615_YA], the enrichment score was inactive: 1.52.

As for DVAEEDSYVKRSQGR [RET_HUMAN_905_YA], the enrichment score is inactive: 0.619.

Turning to EEKARMIYEDYISIL [RGS17_HUMAN_137], the enrichment score is inactive: 0.913.

Turning to DGFDPSDYAEPMDAV [RHG35_HUMAN_1087], the enrichment score is inactive: 0.938.

TNTGFPRYPNDSVAA [RET_HUMAN_1090_YA]: the enrichment score was inactive: 0.652.

Take KSSGEIVYCGQVFEK [RL18A_HUMAN_63]: the enrichment score was inactive: 1.35.

Regarding WPSPYKDYEVKKEGS [RAI3_HUMAN_350], the enrichment score is inactive: 1.18.

As for SALYEDRYLLGTSLA [ASSY_HUMAN_87], the enrichment score is inactive: 0.514.

Consider AAELVNNYGKGWSLK [RAPSN_HUMAN_196], for which the enrichment score is inactive: 0.764.

As for NARKVHPYEDSDSSE [RIOK3_HUMAN_122_YA], the enrichment score is inactive: 0.871.

With TWIENKLYGRISHAF [RET_HUMAN_586], the enrichment score was inactive: 1.41.

A further experiment has as its target SHP2 C-SH2 domain wild-type. Described as above. Conditions: peptide library: Human pTyr.
In the case of NTGAKNLYIISVKGI [RL23_HUMAN_38], the enrichment score was inactive: 2.51.

Take CAKNRPDYVSEEEED [RBP2_HUMAN_2666_YA]: the enrichment score was inactive: 1.17.

As for FTLPVHFYGHVEHTS [PYGM_HUMAN_204], the enrichment score is inactive: 2.52.

EGKTKEVYELLDSPG [PUR6_HUMAN_22]: the enrichment score is inactive: 0.818.

For ASPEAQDYVALEGTQ [RHG35_HUMAN_308_YA], the enrichment score is inactive: 0.669.

Take SPKSQDSYPGSPSLS [RBP10_HUMAN_362]: the enrichment score was inactive: 0.889.

For the molecule ILRCNAEYVSSTLSL [RGMC_HUMAN_46], the enrichment score was inactive: 1.35.

With VKHFTNPYCNIALNS [RASA1_HUMAN_615_YA], the enrichment score was inactive: 1.84.

Turning to DVAEEDSYVKRSQGR [RET_HUMAN_905_YA], the enrichment score was inactive: 0.519.

As to EEKARMIYEDYISIL [RGS17_HUMAN_137], the enrichment score is inactive: 1.19.

As to DGFDPSDYAEPMDAV [RHG35_HUMAN_1087], the enrichment score was inactive: 0.765.

TNTGFPRYPNDSVAA [RET_HUMAN_1090_YA]: the enrichment score is inactive: 0.746.

On to KSSGEIVYCGQVFEK [RL18A_HUMAN_63], for which the enrichment score was inactive: 1.16.

Regarding WPSPYKDYEVKKEGS [RAI3_HUMAN_350], the enrichment score is inactive: 1.05.

Turning to SALYEDRYLLGTSLA [ASSY_HUMAN_87], the enrichment score is inactive: 0.561.

For the molecule AAELVNNYGKGWSLK [RAPSN_HUMAN_196], the enrichment score is inactive: 1.04.

On to NARKVHPYEDSDSSE [RIOK3_HUMAN_122_YA], for which the enrichment score is inactive: 0.761.

Take TWIENKLYGRISHAF [RET_HUMAN_586]: the enrichment score is inactive: 1.37.

In the next experiment the target is SHP2 N-SH2 domain L43F. Described as above. As to conditions: peptide library: Human pTyr.
Regarding NTGAKNLYIISVKGI [RL23_HUMAN_38], the enrichment score is inactive: 2.53.

As for CAKNRPDYVSEEEED [RBP2_HUMAN_2666_YA], the enrichment score is inactive: 1.27.

FTLPVHFYGHVEHTS [PYGM_HUMAN_204]: the enrichment score is inactive: 2.18.

Consider EGKTKEVYELLDSPG [PUR6_HUMAN_22], for which the enrichment score is inactive: 0.646.

Consider ASPEAQDYVALEGTQ [RHG35_HUMAN_308_YA], for which the enrichment score is inactive: 1.01.

For the molecule SPKSQDSYPGSPSLS [RBP10_HUMAN_362], the enrichment score is inactive: 0.695.

On to ILRCNAEYVSSTLSL [RGMC_HUMAN_46], for which the enrichment score is inactive: 1.31.

Turning to VKHFTNPYCNIALNS [RASA1_HUMAN_615_YA], the enrichment score was inactive: 1.43.

DVAEEDSYVKRSQGR [RET_HUMAN_905_YA]: the enrichment score is inactive: 0.591.

As for EEKARMIYEDYISIL [RGS17_HUMAN_137], the enrichment score is inactive: 1.13.

DGFDPSDYAEPMDAV [RHG35_HUMAN_1087]: the enrichment score is inactive: 0.849.

With TNTGFPRYPNDSVAA [RET_HUMAN_1090_YA], the enrichment score is inactive: 0.636.

As for KSSGEIVYCGQVFEK [RL18A_HUMAN_63], the enrichment score is inactive: 1.21.

As for WPSPYKDYEVKKEGS [RAI3_HUMAN_350], the enrichment score is inactive: 0.867.

For the molecule SALYEDRYLLGTSLA [ASSY_HUMAN_87], the enrichment score is inactive: 0.621.

Regarding AAELVNNYGKGWSLK [RAPSN_HUMAN_196], the enrichment score is inactive: 0.601.

With NARKVHPYEDSDSSE [RIOK3_HUMAN_122_YA], the enrichment score was inactive: 1.13.

As for TWIENKLYGRISHAF [RET_HUMAN_586], the enrichment score was inactive: 1.31.

A further experiment addresses SHP2 N-SH2 domain T42A. The description is as above. Conditions: peptide library: Human pTyr.
NTGAKNLYIISVKGI [RL23_HUMAN_38]: the enrichment score is inactive: 2.15.

On to CAKNRPDYVSEEEED [RBP2_HUMAN_2666_YA], for which the enrichment score was inactive: 1.07.

As for FTLPVHFYGHVEHTS [PYGM_HUMAN_204], the enrichment score is inactive: 2.26.

Take EGKTKEVYELLDSPG [PUR6_HUMAN_22]: the enrichment score was inactive: 0.762.

With ASPEAQDYVALEGTQ [RHG35_HUMAN_308_YA], the enrichment score is inactive: 0.897.

Consider SPKSQDSYPGSPSLS [RBP10_HUMAN_362], for which the enrichment score is inactive: 0.546.

On to ILRCNAEYVSSTLSL [RGMC_HUMAN_46], for which the enrichment score is inactive: 1.32.

Regarding VKHFTNPYCNIALNS [RASA1_HUMAN_615_YA], the enrichment score was inactive: 1.39.

DVAEEDSYVKRSQGR [RET_HUMAN_905_YA]: the enrichment score is inactive: 0.622.

Turning to EEKARMIYEDYISIL [RGS17_HUMAN_137], the enrichment score is inactive: 1.14.

For the molecule DGFDPSDYAEPMDAV [RHG35_HUMAN_1087], the enrichment score was inactive: 1.01.

As for TNTGFPRYPNDSVAA [RET_HUMAN_1090_YA], the enrichment score is inactive: 0.647.

Turning to KSSGEIVYCGQVFEK [RL18A_HUMAN_63], the enrichment score is inactive: 1.53.

For WPSPYKDYEVKKEGS [RAI3_HUMAN_350], the enrichment score was inactive: 1.08.

Turning to SALYEDRYLLGTSLA [ASSY_HUMAN_87], the enrichment score was inactive: 0.494.

AAELVNNYGKGWSLK [RAPSN_HUMAN_196]: the enrichment score is inactive: 0.823.

For the molecule NARKVHPYEDSDSSE [RIOK3_HUMAN_122_YA], the enrichment score was inactive: 0.95.

Turning to TWIENKLYGRISHAF [RET_HUMAN_586], the enrichment score is inactive: 1.48.

The target in the next experiment is SHP2 N-SH2 domain T52S. The experiment is described as above. Conditions: peptide library: Human pTyr.
With NTGAKNLYIISVKGI [RL23_HUMAN_38], the enrichment score is inactive: 3.

For the molecule CAKNRPDYVSEEEED [RBP2_HUMAN_2666_YA], the enrichment score is inactive: 0.928.

For FTLPVHFYGHVEHTS [PYGM_HUMAN_204], the enrichment score is inactive: 2.7.

EGKTKEVYELLDSPG [PUR6_HUMAN_22]: the enrichment score was inactive: 0.823.

For ASPEAQDYVALEGTQ [RHG35_HUMAN_308_YA], the enrichment score was inactive: 0.776.

Take SPKSQDSYPGSPSLS [RBP10_HUMAN_362]: the enrichment score was inactive: 0.58.

Take ILRCNAEYVSSTLSL [RGMC_HUMAN_46]: the enrichment score was inactive: 1.45.

As for VKHFTNPYCNIALNS [RASA1_HUMAN_615_YA], the enrichment score is inactive: 1.32.

In the case of DVAEEDSYVKRSQGR [RET_HUMAN_905_YA], the enrichment score is inactive: 0.621.

Consider EEKARMIYEDYISIL [RGS17_HUMAN_137], for which the enrichment score was inactive: 1.25.

Regarding DGFDPSDYAEPMDAV [RHG35_HUMAN_1087], the enrichment score was inactive: 0.893.

Take TNTGFPRYPNDSVAA [RET_HUMAN_1090_YA]: the enrichment score was inactive: 0.648.

With KSSGEIVYCGQVFEK [RL18A_HUMAN_63], the enrichment score was inactive: 1.4.

As to WPSPYKDYEVKKEGS [RAI3_HUMAN_350], the enrichment score was inactive: 0.763.

With SALYEDRYLLGTSLA [ASSY_HUMAN_87], the enrichment score was inactive: 0.538.

Consider AAELVNNYGKGWSLK [RAPSN_HUMAN_196], for which the enrichment score was inactive: 1.4.

For NARKVHPYEDSDSSE [RIOK3_HUMAN_122_YA], the enrichment score was inactive: 0.866.

For the molecule TWIENKLYGRISHAF [RET_HUMAN_586], the enrichment score is inactive: 0.855.

A further experiment has as its target SHP2 N-SH2 domain wild-type. The description is as above. As to conditions: peptide library: Human pTyr.
For NTGAKNLYIISVKGI [RL23_HUMAN_38], the enrichment score is inactive: 3.16.

With CAKNRPDYVSEEEED [RBP2_HUMAN_2666_YA], the enrichment score was inactive: 1.22.

For the molecule FTLPVHFYGHVEHTS [PYGM_HUMAN_204], the enrichment score is inactive: 2.74.

Turning to EGKTKEVYELLDSPG [PUR6_HUMAN_22], the enrichment score was inactive: 0.783.

Regarding ASPEAQDYVALEGTQ [RHG35_HUMAN_308_YA], the enrichment score is inactive: 0.92.

Turning to SPKSQDSYPGSPSLS [RBP10_HUMAN_362], the enrichment score is inactive: 0.568.

For the molecule ILRCNAEYVSSTLSL [RGMC_HUMAN_46], the enrichment score is inactive: 1.66.

In the case of VKHFTNPYCNIALNS [RASA1_HUMAN_615_YA], the enrichment score was inactive: 1.53.

In the case of DVAEEDSYVKRSQGR [RET_HUMAN_905_YA], the enrichment score is inactive: 0.892.

For EEKARMIYEDYISIL [RGS17_HUMAN_137], the enrichment score is inactive: 1.25.

For the molecule DGFDPSDYAEPMDAV [RHG35_HUMAN_1087], the enrichment score is inactive: 0.975.

Consider TNTGFPRYPNDSVAA [RET_HUMAN_1090_YA], for which the enrichment score is inactive: 0.637.

In the case of KSSGEIVYCGQVFEK [RL18A_HUMAN_63], the enrichment score is inactive: 1.48.

For the molecule WPSPYKDYEVKKEGS [RAI3_HUMAN_350], the enrichment score was inactive: 1.12.

On to SALYEDRYLLGTSLA [ASSY_HUMAN_87], for which the enrichment score was inactive: 0.512.

For the molecule AAELVNNYGKGWSLK [RAPSN_HUMAN_196], the enrichment score was inactive: 1.24.

As to NARKVHPYEDSDSSE [RIOK3_HUMAN_122_YA], the enrichment score is inactive: 0.786.

On to TWIENKLYGRISHAF [RET_HUMAN_586], for which the enrichment score is inactive: 1.83.
